# Measured values taken from the supplement of paper PMC8728848.
# This is one part of the list.
# Columns and labels:
# Assay in all cases: glycan array binding signal (z-score within array); higher = stronger binding
# Conditions in all cases: glycan notation: IUPAC condensed, linker removed
# [1] = target: Neu5Ac(a2-8)Neu5Ac(a2-3)[GalNAc(b1-4)]Gal(b1-4)Glc
# Procedure, shortened: (§1)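 From the Consortium for Functional Glycomics database, 3228 arrays were curated, keeping only those whose protein sequence was available. Binding is given as a within-array Z-score averaged across arrays sharing a protein sequence and across linkers. Negative Z-scores can be read as non-binding.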
# [2] = target: Neu5Ac(a2-8)Neu5Ac(a2-8)Neu5Ac
# Procedure, shortened: as §1
# [3] = target: Neu5Ac(a2-8)Neu5Ac(a2-8)Neu5Ac(a2-3)Gal(b1-4)Glc
# Procedure, shortened: as §1
# [4] = target: Neu5Ac(a2-8)Neu5Ac(a2-8)Neu5Ac(a2-3)[GalNAc(b1-4)]Gal(b1-4)Glc
# Procedure, shortened: as §1
# [5] = target: Neu5Ac(a2-8)Neu5Ac(a2-8)Neu5Ac(a2-8)Neu5Ac(a2-3)[GalNAc(b1-4)]Gal(b1-4)Glc
# Procedure, shortened: as §1
# Neu5Ac(b1-6)GalNAc = target: Neu5Ac(b1-6)GalNAc
# Procedure, shortened: as §1
# [6] = target: Neu5Ac(b2-6)Gal(b1-4)GlcNAc
# Procedure, shortened: as §1
# [7] = target: Neu5Ac9Ac(a2-6)Gal(b1-4)GlcNAc
# Procedure, shortened: as §1
# [8] = target: Neu5Gc(a2-3)Gal(b1-3)GlcNAc
# Procedure, shortened: as §1
# [9] = target: Neu5Gc(a2-3)Gal(b1-3)[Fuc(a1-4)]GlcNAc
# Procedure, shortened: as §1
# Neu5Gc(a2-3)Gal(b1-4)Glc = target: Neu5Gc(a2-3)Gal(b1-4)Glc
# Procedure, shortened: as §1
# [10] = target: Neu5Gc(a2-3)Gal(b1-4)GlcNAc
# Procedure, shortened: as §1
# [11] = target: Neu5Gc(a2-3)Gal(b1-4)[Fuc(a1-3)]GlcNAc
# Procedure, shortened: as §1
# [12] = target: Neu5Gc(a2-6)Gal(b1-4)GlcNAc
# Procedure, shortened: as §1
# Neu5Gc(a2-6)GalNAc = target: Neu5Gc(a2-6)GalNAc
# Procedure, shortened: as §1
binder,measurement,setting,value
"F17bG (Escherichia coli), Q47200 (protein) MTNFYKVFLAVFILVCCNISHAVVSFIGSTENDVGPSQGSYSSTHAMDNLPFVYNTGYNIGYQNANVWRIGGGFCVGLDGKVDLPVVGSLDGQSIYGLTEEVGLLIWMGDTNYSRGTAMSGNSWENVFSGWCVGNYLSTQGLSVHVRPVILKRNSSAQYSVQKTSIGSIRMRPYNGSSAGSVQTTVNFSLNPFTLNDTVTSCRLLTPSAVNVSLAAISAGQLPSSGDEVVAGTTSLKLQCDAGVTVWATLTDATTPSNRSDILTLTGASTATGVGLRIYKNTDSTPLKFGPDSPVKGNENQWQLSTGTETSPSVRLYVKYVNTGEGINPGTVNGISTFTFSYQ",glycan array binding signal (z-score),[1],-0.062
same,glycan array binding signal (z-score),[2],0.166
same,glycan array binding signal (z-score),[3],-0.071
same,glycan array binding signal (z-score),[4],-0.072
same,glycan array binding signal (z-score),[5],-0.011
same,glycan array binding signal (z-score),Neu5Ac(b1-6)GalNAc,-0.298
same,glycan array binding signal (z-score),[6],-0.406
same,glycan array binding signal (z-score),[7],-0.218
same,glycan array binding signal (z-score),[8],-0.204
same,glycan array binding signal (z-score),[9],-0.367
same,glycan array binding signal (z-score),Neu5Gc(a2-3)Gal(b1-4)Glc,-0.464
same,glycan array binding signal (z-score),[10],-0.002
same,glycan array binding signal (z-score),[11],-0.362
same,glycan array binding signal (z-score),[12],-0.297
same,glycan array binding signal (z-score),Neu5Gc(a2-6)GalNAc,-0.24
